Assay results as given in the antibiotic and cytotoxicity screens of Wong et al. (2023).
The other results are listed elsewhere or left out.

How the values were obtained:
HSkMC = human skeletal muscle cells; test: cytotoxicity call (relative viability < 0.9); conditions: 10 µM
HepG2 = test: cytotoxicity call (relative viability < 0.9); conditions: 10 µM
S. aureus RN4220 = test: growth inhibition call (relative growth <= 0.2); conditions: 50 µM

SMILES	cytotoxicity call (HSkMC)	cytotoxicity call (HepG2)	growth inhibition call (S. aureus RN4220)
C[C@@H]1CN([C@H](C)CO)C(=O)c2cc(-c3ccc(C(=O)N(C)C)cc3)cnc2O[C@@H]1CN(C)C(=O)c1cccnc1	inactive	inactive	inactive
Cc1noc(C)c1S(=O)(=O)Nc1ccc2c(c1)C(=O)N([C@@H](C)CO)C[C@H](C)[C@@H](CN(C)Cc1ccccc1)OCCCC[C@@H](C)O2	inactive	inactive	inactive
C[C@H]1CN([C@@H](C)CO)C(=O)c2cccc(NC(=O)NC3CCCCC3)c2O[C@@H]1CN(C)Cc1ccc(C(F)(F)F)cc1	inactive	inactive	inactive
Cc1noc(C)c1NC(=O)N(C)C[C@H]1Oc2ccc(NC(=O)c3ccncc3)cc2CC(=O)N([C@@H](C)CO)C[C@@H]1C	inactive	inactive	inactive
Cc1noc(C)c1NC(=O)N(C)C[C@@H]1OCCCC[C@@H](C)Oc2ccc(NC(=O)Nc3ccc(F)cc3)cc2C(=O)N([C@H](C)CO)C[C@@H]1C	inactive	inactive	inactive
Cc1ccc(S(=O)(=O)N(C)C[C@H]2Oc3ccc(NS(=O)(=O)c4c(C)noc4C)cc3CC(=O)N([C@H](C)CO)C[C@H]2C)cc1	inactive	inactive	inactive
Cc1ccc(S[C@]2(C(=O)NCC(F)(F)F)CC(=O)N(Cc3cc(C(F)(F)F)cc(C(F)(F)F)c3)[C@@H]2c2ccc(CO)cc2)cc1	inactive	inactive	inactive
NC(=O)c1ccc[n+]([C@@H]2O[C@H](COP(=O)(O)OP(=O)(O)OC[C@H]3O[C@@H](n4cnc5c(N)ncnc54)[C@H](O)[C@@H]3O)[C@@H](O)[C@H]2O)c1	inactive	inactive	inactive
Cc1ccc(S(=O)(=O)Nc2ccc3c(c2)C(=O)N([C@@H](C)CO)C[C@H](C)[C@H](CN(C)Cc2ccccc2)OCCCC[C@H](C)O3)cc1	inactive	inactive	inactive
Cc1ccc(S(=O)(=O)Nc2ccc3c(c2)C(=O)N([C@@H](C)CO)C[C@H](C)[C@@H](CN(C)CC2CCCCC2)OCCCC[C@H](C)O3)cc1	inactive	inactive	inactive
CC(C)NC(=O)N(C)C[C@H]1Oc2c(NC(=O)C3CCOCC3)cccc2C(=O)N([C@@H](C)CO)C[C@H]1C	inactive	inactive	inactive
Cn1[nH]cc2c(=O)cccc1-2	inactive	inactive	inactive
C[C@H](CO)N1C[C@H](C)[C@@H](CN(C)Cc2ccc(-c3ccccc3)cc2)Oc2ccc(NC(=O)Nc3ccc(F)cc3)cc2C1=O	inactive	inactive	inactive
C[C@@H]1CCCCO[C@@H](CN(C)C(=O)NC2CCCCC2)[C@H](C)CN([C@H](C)CO)C(=O)c2cc(NC(=O)c3ccccc3)ccc2O1	inactive	inactive	inactive
CN1C(=O)c2cc(NS(=O)(=O)c3cccc(F)c3)ccc2OC[C@@H]2O[C@@H](CC(=O)NCCN3CCCCC3)CC[C@H]21	inactive	inactive	inactive
C[C@H](CO)N1C[C@H](C)[C@H](CN(C)Cc2ccc(C(F)(F)F)cc2)Oc2ccc(NC(=O)Nc3cccc4ccccc34)cc2CC1=O	inactive	inactive	inactive
C[C@@H]1CCCCO[C@H](CN(C)C(=O)CCCN(C)C)[C@@H](C)CN([C@H](C)CO)C(=O)c2cc(NS(=O)(=O)c3cn(C)cn3)ccc2O1	inactive	inactive	inactive
CCC(=O)N[C@H]1C=C[C@@H](CC(=O)OC)O[C@H]1CO	inactive	inactive	inactive
COc1cccc(S(=O)(=O)N[C@H]2C=C[C@H](CC(=O)NC3CCC3)O[C@@H]2CO)c1	inactive	inactive	inactive

SMILES	cytotoxicity call (HSkMC)	cytotoxicity call (HepG2)	growth inhibition call (S. aureus RN4220)
CCS(=O)(=O)N1CC[C@]2(CC1)CN(Cc1ccc3c(c1)OCO3)[C@@H](CO)c1c2c2ccc(cc2n1C)OC	inactive	inactive	inactive
NC(=O)c1cc(N)ccc1F	inactive	inactive	inactive
COc1ccc([Si](C)(C)[C@H]2[C@H](CCO)O[C@@]3(C(=O)N(Cc4cccc(N5CCCCC5=O)c4)c4ccccc43)[C@@H]2C)cc1	inactive	inactive	inactive
C[C@H]1CN([C@@H](C)CO)C(=O)CCCn2nncc2CO[C@H]1CN(C)S(=O)(=O)c1cn(C)cn1	inactive	inactive	inactive
C[C@@H]1CN([C@H](C)CO)C(=O)Cc2cc(NC(=O)Nc3cccc4ccccc34)ccc2O[C@H]1CN(C)Cc1ccc(C(F)(F)F)cc1	inactive	inactive	inactive
C[C@@H]1CN([C@@H](C)CO)C(=O)c2cc(C#Cc3ccccc3F)cnc2O[C@@H]1CN(C)C(=O)Cc1cccnc1	inactive	inactive	inactive
C[C@@H]1CCCCO[C@@H](CN(C)C(=O)C2CCCCC2)[C@@H](C)CN([C@@H](C)CO)C(=O)c2cc(NC(=O)Nc3ccc4c(c3)OCO4)ccc2O1	inactive	inactive	inactive
NC(=O)CCC(N)C(=O)O (stereo not drawn)	inactive	active	inactive
CN1C[C@H](C#N)CC1=O	inactive	inactive	inactive
C[C@@H]1CN([C@H](C)CO)C(=O)c2cc(C#Cc3cccc(F)c3)cnc2O[C@H]1CN(C)CC1CCOCC1	inactive	inactive	inactive
O=C(C[C@H]1CC[C@@H]2[C@H](COC[C@@H](O)CN2S(=O)(=O)c2ccc(F)cc2)O1)NCc1ccc(Cl)c(Cl)c1	inactive	inactive	inactive
C[C@@H]1CN([C@H](C)CO)C(=O)c2cccc(NS(=O)(=O)c3ccccc3)c2O[C@@H]1CN(C)Cc1ccc(Cl)c(Cl)c1	inactive	inactive	inactive
C[C@H]1CN([C@@H](C)CO)C(=O)c2cccc(NC(=O)c3ccncc3)c2O[C@@H]1CN(C)S(=O)(=O)c1cccs1	inactive	inactive	inactive
COCC#Cc1ccc([C@H]2[C@@H](CO)N3C(=O)CN(C(=O)CN4CCOCC4)C[C@@H]23)cc1	inactive	inactive	inactive
C[C@@H]1CCCCO[C@H](CN(C)S(=O)(=O)c2ccc(F)cc2)[C@H](C)CN([C@@H](C)CO)C(=O)c2cc(NC(=O)C3CCCCC3)ccc2O1	inactive	inactive	inactive
Nc1nc(=O)n([C@@H]2CS[C@H](CO)O2)cc1F	inactive	inactive	inactive
C[C@@H]1CN([C@H](C)CO)C(=O)Cc2cc(NC(=O)CCCN(C)C)ccc2O[C@H]1CN(C)C(=O)Nc1ccc2c(c1)OCO2	inactive	inactive	inactive
C=CC[C@H](CC(=O)N(CCO)Cc1ccccc1)C(=O)NCCOC(=O)[C@@H](CC=C)CC(=O)OC(C)(C)C	inactive	inactive	inactive
CC1(C)C2CCC1(C)C(O)C2 (stereo not drawn)	inactive	inactive	inactive

SMILES	cytotoxicity call (HSkMC)	cytotoxicity call (HepG2)	growth inhibition call (S. aureus RN4220)
O=c1ccn([C@H]2O[C@H](CO)[C@@H](O)[C@@H]2O)c(=S)[nH]1	inactive	active	inactive
COc1ccc(-c2cc(=O)c3c(OC)cc(OC)cc3o2)cc1	inactive	inactive	inactive
C[C@H]1CCCCO[C@@H](CN(C)Cc2ccncc2)[C@@H](C)CN([C@@H](C)CO)C(=O)c2cc(NC(=O)Nc3ccccc3)ccc2O1	inactive	inactive	inactive
Cc1noc(C)c1NC(=O)Nc1ccc2c(c1)CC(=O)N([C@@H](C)CO)C[C@@H](C)[C@H](CN(C)S(=O)(=O)c1c(C)noc1C)O2	inactive	inactive	inactive
COc1ccc(NC(=O)Nc2cccc3c2O[C@@H](CN(C)S(C)(=O)=O)[C@H](C)CN([C@@H](C)CO)C3=O)cc1	inactive	inactive	inactive
COc1ccc(NC(=O)N(C)C[C@H]2Oc3ccc(NC(=O)C4CC4)cc3C(=O)N([C@H](C)CO)C[C@H]2C)cc1	inactive	inactive	inactive
CCC1=C(C)CN(C(=O)NCCc2ccc(S(=O)(=O)NC(=O)NC3CCC(C)CC3)cc2)C1=O (stereo not drawn)	inactive	inactive	inactive
C[C@@H]1CN([C@@H](C)CO)C(=O)c2ccccc2-c2ccccc2CO[C@@H]1CN(C)C(=O)Nc1cccc(Cl)c1Cl	inactive	inactive	inactive
C[C@@H]1CN([C@H](C)CO)C(=O)c2cc(NC(=O)c3ccncc3)ccc2O[C@@H](C)CCCCO[C@H]1CN(C)C(=O)Nc1ccc(C(F)(F)F)cc1	inactive	inactive	inactive
CO[C@@H]1CN(C)C(=O)c2cc(NS(=O)(=O)CC(F)(F)F)ccc2OC[C@H](C)N(C(=O)NC(C)C)C[C@H]1C	inactive	inactive	inactive
C[C@H](CO)N1C[C@H](C)[C@H](CN(C)Cc2ccccc2)Oc2ccc(NC(=O)Cn3cnnn3)cc2CC1=O	inactive	inactive	inactive
Cc1noc(C)c1S(=O)(=O)Nc1ccc2c(c1)CC(=O)N([C@H](C)CO)C[C@H](C)[C@H](CN(C)CC1CC1)O2	inactive	inactive	inactive
Cn1cnc(CCNC(=O)C[C@@H]2CC[C@H]3[C@@H](COC[C@@H](O)CN3C(=O)C3CC3)O2)c1	inactive	inactive	inactive
O=C(C[C@@H]1C[C@@H]2c3cc(NC(=O)C4CCOCC4)ccc3O[C@@H]2[C@H](CO)O1)NCc1ccc(Cl)cc1	inactive	inactive	inactive
O=C1CCC(=O)N1CNc1ccccn1	inactive	inactive	inactive
C[C@@H]1CCCCO[C@@H](CN(C)Cc2ccc(C(F)(F)F)cc2)[C@@H](C)CN([C@H](C)CO)C(=O)c2cc(NS(=O)(=O)c3cccs3)ccc2O1	inactive	active	inactive
C[C@H](CO)N1C[C@H](C)[C@@H](CN(C)Cc2ccc3c(c2)OCO3)OCCCC[C@H](C)Oc2ccc(NC(=O)Cc3ccccc3)cc2C1=O	inactive	inactive	inactive
Cc1noc(C)c1S(=O)(=O)Nc1ccc2c(c1)CC(=O)N([C@H](C)CO)C[C@@H](C)[C@@H](CN(C)Cc1ccccc1)O2	inactive	inactive	inactive
